In article PMC4336329 (PLoS ONE, 2015):
Among all 310,000 compounds or so, about 14,000 (4.5%) showed an effect of 50% or more. The effect is printed as a negative number. This is one part of the list.

What follows are compounds tested against human ether-à-go-go-related gene (hERG) potassium channel (human, UniProt Q12809) (assay: primary screen, population patch clamp on CHO cells stably expressing hERG).
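Note: peak tail current of the secondary pulse compared with the same well before compound.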

Chain of human ether-à-go-go-related gene (hERG) potassium channel (Q12809 whole entry, looked up): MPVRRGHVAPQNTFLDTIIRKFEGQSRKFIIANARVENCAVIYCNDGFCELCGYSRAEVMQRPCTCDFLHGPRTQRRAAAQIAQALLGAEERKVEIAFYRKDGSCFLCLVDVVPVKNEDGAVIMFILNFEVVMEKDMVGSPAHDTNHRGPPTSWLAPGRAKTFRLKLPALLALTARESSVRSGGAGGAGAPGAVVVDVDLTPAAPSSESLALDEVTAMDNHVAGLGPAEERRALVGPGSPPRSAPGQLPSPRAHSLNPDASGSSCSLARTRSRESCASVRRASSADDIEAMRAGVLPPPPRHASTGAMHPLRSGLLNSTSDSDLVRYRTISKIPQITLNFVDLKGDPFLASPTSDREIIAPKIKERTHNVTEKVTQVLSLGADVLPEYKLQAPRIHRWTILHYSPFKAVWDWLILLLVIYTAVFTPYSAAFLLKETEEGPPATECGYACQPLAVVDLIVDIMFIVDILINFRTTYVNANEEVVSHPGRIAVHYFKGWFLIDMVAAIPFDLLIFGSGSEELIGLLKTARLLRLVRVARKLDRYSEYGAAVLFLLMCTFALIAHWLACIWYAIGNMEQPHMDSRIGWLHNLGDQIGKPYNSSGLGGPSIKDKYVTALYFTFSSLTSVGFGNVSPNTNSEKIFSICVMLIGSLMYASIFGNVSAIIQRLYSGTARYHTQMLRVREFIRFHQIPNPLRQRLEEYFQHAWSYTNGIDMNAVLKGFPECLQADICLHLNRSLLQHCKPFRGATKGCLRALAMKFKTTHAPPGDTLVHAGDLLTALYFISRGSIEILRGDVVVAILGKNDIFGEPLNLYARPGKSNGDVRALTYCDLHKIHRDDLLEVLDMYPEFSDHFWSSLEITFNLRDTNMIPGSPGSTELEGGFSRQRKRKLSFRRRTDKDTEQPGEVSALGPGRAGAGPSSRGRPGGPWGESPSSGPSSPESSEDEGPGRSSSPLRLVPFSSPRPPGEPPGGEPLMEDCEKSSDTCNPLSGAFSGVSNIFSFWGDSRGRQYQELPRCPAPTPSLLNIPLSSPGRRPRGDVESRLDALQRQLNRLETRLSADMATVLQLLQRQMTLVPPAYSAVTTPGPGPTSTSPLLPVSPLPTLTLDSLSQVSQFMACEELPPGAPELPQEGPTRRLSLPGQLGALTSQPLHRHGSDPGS

| Compound | hERG current change (%, negative = inhibition) at 10uM [%] |
| --- | --- |
| COc1cccc(Oc2nc(-c3ccncc3)nc3ccccc23)c1 | 16.6 |
| CCCOc1ccc(C(F)(F)F)cc1NC(=O)CN1C(=O)C(=O)N(CC)C1=O | 3.86 |
| CN1C(=O)N(C)C2(CC1(C)C)CC(C)(C)N(C)C(=O)N2C | 5.38 |
| CC(=O)c1cccc(NC(=O)CCN2C(=O)C3CC=CCC3C2=O)c1 (stereo not drawn) | 5.49 |
| O=C(Cn1c(=O)c2sccc2n(Cc2ccc([N+](=O)[O-])cc2)c1=O)NCCc1ccccc1 | -49 |
| CCC(=O)Nc1ccc(C(=O)CSc2nnc(-c3ccc(O)cc3)n2CC2CCCO2)cc1 (stereo not drawn) | 22.8 |
| COc1ccc(-c2cc(C(=O)O)[nH]n2)cc1OC | 6.47 |
| C/C(=N\NC(=O)c1ccco1)c1cccc2ccccc12 | -13.6 |
| CN1Cc2c(N3CCOCC3)nc3sc(C#N)c(N)c3c2CC1(C)C | -8.57 |
| CN(C)S(=O)(=O)c1cccc(NC(=O)c2n[nH]c(=O)c3ccccc23)c1 | 10.5 |
| O=C(ON=C1CCN(S(=O)(=O)c2ccccc2)CC1)c1ccc(F)cc1 | -13.3 |
| CS(=O)(=O)c1ccc(Cl)c(NC(=O)Cc2ccsc2)c1 | 11.7 |
| COc1ccc(N2C(N)=NC(N)=NC23CCCC3)cc1.Cl | 0.958 |
| C=CCC1CCCCC12NC(=O)N(c1ccccc1)N2 (stereo not drawn) | 0.303 |
| O=C(NCCc1ccccc1)C1CCCN1S(=O)(=O)c1ccc(Cl)cc1 (stereo not drawn) | -2.11 |
| O=c1cc[nH]c(=O)[nH]1 | -23.9 |
| O=C(Nc1ccc(S(=O)(=O)Nc2ccccn2)cc1)c1cccc(Br)c1 | 10.7 |
| Cn1c(=O)c2sccc2n2c(CCCC(=O)NCCc3ccccc3)nnc12 | -4.14 |
| CN(CC(=O)Nc1ccc(F)c(F)c1F)C(=O)C1CCCC1 | 1.05 |
| Cc1ccc(C)c(S(=O)(=O)N2CCCC2CNC(=O)C(=O)NC2CCCC2)c1 (stereo not drawn) | -21.2 |
| COc1ccc(CNC(=O)C23CC4CC(CC(Br)(C4)C2)C3)cc1 | 14.8 |
| CC(C)N1C(=O)C(Cc2nc3ccccc3c(=O)n2-c2ccccc2)c2ccccc21 (stereo not drawn) | -8.99 |
| COc1ccc(OC)c(C(=O)CN2CCN(S(=O)(=O)c3ccc(Br)cc3)CC2)c1 | -27.4 |

| Compound | hERG current change (%, negative = inhibition) at 10uM [%] |
| --- | --- |
| O=C(NCc1ccc(Cl)cc1)C(=O)NCC(c1cccnc1)N1CCN(c2ccc(F)cc2)CC1 (stereo not drawn) | -45.5 |
| Cc1cc(N)ccc1-n1c(C)ccc1C | 6.19 |
| CCOC(=O)c1c(C)[nH]c(C(=O)Cn2c(=O)oc3ccccc32)c1C | 2.05 |
| CC(=O)OCCc1[nH]c2ccccc2c1C | 12.3 |
| O=C(NCc1ccccc1Cl)c1ccc2c(c1)OCO2 | 5.02 |
| Cc1nnc(SCC(=O)NC(=O)NC(C)C)s1 | 15.8 |
| CCOc1cc(/C=N/n2c(C)nc3ccccc3c2=O)ccc1O | 23.6 |
| COc1ccc(NC(=O)CN(C)C(=O)c2ccc(NS(=O)(=O)c3ccc(F)cc3)cc2)cc1 | 11.8 |
| COc1ccc(CC(=O)Nc2ccc(NC(=O)c3ccccc3F)cc2)cc1 | 24.6 |
| Cc1nc(NC(=O)COC(=O)C(C)NC(=O)c2ccccc2)c(Cl)cc1Cl (stereo not drawn) | -9.81 |
| CCC(C)N(CCNC(=O)c1ccc2c(c1)NC(=O)c1ccccc1S2)C1CCCCC1 (stereo not drawn) | -66.4 |
| O=C(O)c1[nH]c2ccc(Cl)cc2c1CCN1C(=O)c2ccccc2C1=O | -1.64 |
| CCN(CC)CCCNc1nc(-c2ccccc2)nc2ccccc12.Cl | -61.4 |
| Cc1ccc(NC(=O)c2cncc(Br)c2)cc1S(=O)(=O)N(C)C | 18.6 |
| NS(=O)(=O)c1ccc(N/N=C/c2ccc(O)cc2O)c([N+](=O)[O-])c1 | 6.29 |
| Cc1cc(NS(=O)(=O)c2ccc(NC(=O)/C=C/c3ccc(C)o3)cc2)nc(C)n1 | 13.5 |
| CCn1nnc2cc(C(=O)N(CCOC)CC(=O)Nc3cccc(C)c3C)ccc21 | -11.7 |
| O=C(CCN1C(=O)S/C(=C\c2ccccc2)C1=O)NCCCn1ccnc1 | -38.4 |
| COc1cc(/C=C2\SC(=S)N(CC(=O)Nc3ccccn3)C2=O)cc(OC)c1OC | 3.36 |
| CS(=O)(=O)c1nc(-c2ccccc2)cc(C(F)(F)F)n1 | -37.6 |
| O=P(Nc1ccccc1)(Oc1ccccc1)Oc1ccccc1 | 17.2 |
| CCOC(=O)c1sc(NC(=O)c2sc(C)nc2C)nc1C | -4.49 |
